SMILES strings stand for the structures. Among all 340,000 compounds or so, about 6,900 (2%) were called active. No stated cut-off is given here; in the data, active means inhibition above about 30%; inactive means below that, where a call was filed. Only a part is listed here, and it is no random draw. The source gives no active or inactive call for entries shown without one.

For the experiment, the target named is D(2) dopamine receptor (Homo sapiens) (UniProt P14416). The experiment is described as follows: HTS Assay for Allosteric Antagonists of the Human D2 Dopamine Receptor: Primary Screen for Antagonists. Further: 0% is about no effect. The conditions noted are these: HEK293 TREx D2 cells, calcium flux, dopamine EC80; at 10 µM; stronger effect = higher value. In a few lines: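 Cells plated overnight at 30 C with tetracycline; no-wash calcium dye, 30–90 min RT; 10 s baseline; compound pinned; 180 s read; EC80 dopamine added; another 180 s read.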
UniProt P14416, sequence (P14416 whole entry, looked up): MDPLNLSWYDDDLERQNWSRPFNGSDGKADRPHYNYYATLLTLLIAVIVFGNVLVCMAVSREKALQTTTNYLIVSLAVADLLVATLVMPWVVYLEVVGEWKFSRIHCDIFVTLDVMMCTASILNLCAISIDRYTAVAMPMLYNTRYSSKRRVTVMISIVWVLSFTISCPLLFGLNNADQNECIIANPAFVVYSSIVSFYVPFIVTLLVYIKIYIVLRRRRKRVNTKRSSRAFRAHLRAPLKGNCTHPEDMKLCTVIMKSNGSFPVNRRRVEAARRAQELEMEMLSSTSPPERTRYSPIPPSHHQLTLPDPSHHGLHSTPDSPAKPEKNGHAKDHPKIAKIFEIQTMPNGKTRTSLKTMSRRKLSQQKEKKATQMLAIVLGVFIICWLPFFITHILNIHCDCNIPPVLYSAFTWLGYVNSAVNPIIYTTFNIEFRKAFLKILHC
Consider `O=S(=O)(c1ccc(Br)cc1)c1nc(-c2cccs2)oc1SCc1ccc(F)cc1`, for which the inhibition (in general, the change of the read-out against control, counted positive when it falls) was determined as 14.2%. Take `O=C(Nc1ccccc1)c1ccccc1CCc1ccccc1`: the inhibition is active: 31.8%.

In the case of `Cc1oc(-c2ccccc2F)nc1CS(=O)(=O)CC(=O)N1CCN(c2ccc(Cl)cc2)CC1`, the inhibition was 9.36%. Regarding `CCOc1ccc(C(=O)NCC(=O)OCc2c(C)noc2C)cc1OCC`, the inhibition was active: 37.1%.

For `COc1ccc(CCn2c(=O)c3ccccc3n(CC(=O)Nc3cccc(C)c3)c2=O)cc1OC`, the inhibition was -20.9%. With `CC(=O)Nc1ccccc1-c1nc2ccccc2n(CC(=O)Nc2ccc(C)c(Cl)c2)c1=O` the figure was 5.2%; with `CCc1cccc(NC(=O)c2c(N3CCCC3=O)c3cc(C)ccc3n2C)c1`, 13.8%. With `Cc1ccc(C)c(S(=O)(=O)c2cn(C)c3cc(F)c(F)cc3c2=O)c1` the figure was -4.49%; with `Cc1ccc(CN2CCN(CCCc3ccccc3)CC2CCO)cc1` (stereo unspecified), active: 49.2%. For the molecule `Cc1ccc(S(=O)Cc2ccc(C(=O)NC3CCCCCC3)o2)cc1` (stereo unspecified), the inhibition was determined as 4.14%. Consider `Cc1ccc(S(=O)(=O)Nc2ccc3[nH]c(=O)sc3c2)cc1C`, for which the inhibition was -21.6%. For the molecule `O=C(c1ccc2c(c1)N(Cc1ccc(Cl)cc1)C(=O)c1ccccc1S2(=O)=O)N1CCC(Cc2ccccc2)CC1`, the inhibition was -9.24%.

As to `Cc1ccc(N2CC(NC(=O)c3ccco3)CC2=O)cc1` (stereo unspecified), the inhibition was -26.4%. Turning to `CCOc1ccc(NC(=O)CSC2=Nc3ccccc3C3=NC(CC(=O)NCc4ccccc4OC)C(=O)N23)cc1` (stereo unspecified), the inhibition is -1.17%. Turning to `O=C(c1ccc2c(c1)N(Cc1ccc(F)cc1)C(=O)c1ccccc1S2(=O)=O)N1CCCCCC1`, the inhibition was found to be 25.3%. Consider `O=C(Nc1cc2c(cc1C(=O)c1ccc(Br)cc1)OCCO2)c1ccc(Cl)cc1`, for which the inhibition is 4.95%.

With `CCOc1ccc(Nc2nc(N)c(C(=O)c3ccccc3Cl)s2)cc1`, the inhibition was -5.73%. As for `Cc1cccc(CC(=O)NC2CC(=O)N(c3ccc4c(c3)OCCO4)C2)c1` (stereo unspecified), the inhibition is -10.3%. With `Cc1ccccc1NC(=O)c1ccno1` the figure was active: 31.7%. In the case of `CCOC(=O)c1ccc(N2C(=O)c3[nH]nc(-c4ccc(C)cc4)c3C2c2ccc(O)cc2)cc1` (stereo unspecified), the inhibition was 27.3%. In the case of `Cc1ccccc1CSc1ncc(Cl)c(C(=O)NCc2ccccc2)n1`, the inhibition was found to be 1.6%.

Take `CCC(=O)N1CCc2cc(Br)cc(S(=O)(=O)CCC(=O)Nc3ccc(CC)cc3)c21`: the inhibition is 6.18%. `COc1ccc(-c2cn3c(n2)sc2cc(C(=O)Nc4ccc(F)cc4)ccc23)cc1`: the inhibition is 10.2%. Turning to `CC(=O)OC1=C(C(C)=O)N(Cc2ccccc2)S(=O)(=O)c2ccccc21`, the inhibition was -3.01%.

`Cc1ccc(Cl)cc1NC(=O)c1csnn1`: the inhibition is -3.17%. For `Cc1cc(NC(=O)c2ccc(F)cc2)ccc1-c1cc2ccccc2oc1=O`, the inhibition was found to be 3.99%. Regarding `CCOC(=O)c1nnn(CC(=O)NC(=O)Nc2ccccc2F)c1C(=O)OCC`, the inhibition stood at 15.4%.

`O=C(c1cc(-c2ccc(Br)cc2)n[nH]1)N1CCN(S(=O)(=O)c2ccc(Br)s2)CC1`: the inhibition came to 3.36%. With `CCCCSc1nnc2[nH]c(=O)cc(C)n12`, the inhibition came out at 0.185%. As to `Cc1ccc2c(c1)C(=O)OC(C(=O)Nc1ccc(C(=O)O)cc1)C2` (stereo unspecified), the inhibition is -1.27%. For `O=C(Nc1ccc(Cl)cc1)c1ccc2oc(=O)n(Cc3ccccc3)c2c1`, the inhibition is -15.7%. In the case of `COc1ccc(C(=O)CN2CCN(S(=O)(=O)c3ccc(F)cc3)CC2)cc1`, the inhibition worked out at 18.9%. With `COc1cc2c(cc1OC)C(COc1ccc3c(C)cc(=O)oc3c1)N(C(=O)c1ccc(C)cc1)CC2` (stereo unspecified), the inhibition is 14.5%.

Take `Cc1ccc(C)c(NC(=O)CSc2nc(=O)n(CCN3CCOCC3)c3c2CCC3)c1`: the inhibition is -10.7%. For `CC(C)Cn1cc(NC(=O)NCc2ccc(Cl)cc2)c2ccccc2c1=O`, the inhibition is -2.16%. `COc1ccc(C2c3c(n(C)c4ccccc34)C(=O)N2CC(=O)Nc2c(C)cc(C)cc2C)cc1` (stereo unspecified): the inhibition stood at 6.94%.

As for `CCOc1ccccc1CNC(=O)C(CC)n1nc(C)c2c(C)n(-c3ccccc3)nc2c1=O` (stereo unspecified), the inhibition was -3.23%. The value for `CCOC(=O)N1CCC(NC(=O)c2ccc3c(c2)N(Cc2ccccc2)C(=O)c2ccccc2S3(=O)=O)CC1` was -15.6%. With `COc1ccc(Br)c2c1-c1nc(NC(=O)c3ccc(F)cc3)sc1C2` the figure was 7.29%; with `CCc1ccc(-c2nc3c(c(SCc4ccccc4)n2)Cc2c(CO)cnc(C)c2O3)cc1`, 12.8%; with `CC(C)Oc1ccc(CNC(=O)c2cc3cccc4c3n2CC(C)S4)cc1` (stereo unspecified), 10.5%. Take `Cc1ccc(Cl)cc1NC(=S)N(CCCN1CCN(C)CC1)Cc1cccs1`: the inhibition is active: 45.1%. As for `CCOc1ccc(C2C(=O)N(C3CCCCC3)CC(=O)N2Cc2ccccc2OC)cc1OC` (stereo unspecified), the inhibition was -9.87%. Turning to `Cc1ccc(Cn2c(C(=O)Nc3ccc(Cl)cc3)cc3sccc32)cc1`, the inhibition was determined as 17.6%.

Turning to `Cc1ccc(-c2onc(C)c2C)cc1S(=O)(=O)N1CCC(C)CC1`, the inhibition was determined as 3.62%. Regarding `COc1ccc(Cl)cc1NC(=O)c1ccc(CN2C(=O)CCn3nc(C)cc32)cc1`, the inhibition is 4.93%. In the case of `O=C(O)C1CCCC2CN3CCc4c([nH]c5ccccc45)C3C(O)C21` (stereo unspecified), the inhibition is active: 57.1%.

As for `COc1cc(Cl)c(C)cc1NC(=O)CNC(=O)Cn1ccc2ccccc2c1=O`, the inhibition came out at 1.64%. `Cc1nc2cc(-c3ccc(Cl)cc3)nn2c(C)c1CCC(=O)N1CCN(c2ccccc2)CC1`: the inhibition was determined as 26%.

For `CCN(C(=O)CSc1nnc(-c2cc3occc3n2C)n1-c1ccccc1C)c1ccccc1`, the inhibition is 2.55%. For `O=C(CN1C(=O)COc2ccc(S(=O)(=O)N3CCOCC3)cc21)NCc1ccc(Cl)cc1`, the inhibition is -6.8%. Take `CS(=O)(=O)c1ncc(Cl)c(C(=O)N2CCN(c3cccc(Cl)c3)CC2)n1`: the inhibition came out at 16.3%. On to `CC(=O)Nc1ccc(OCC(O)CN2CCN(c3ccc(Cl)cc3)CC2)cc1` (stereo unspecified), for which the inhibition is active: 40.2%. With `CCOc1ccc(Nc2sc(C(=O)c3ccc(F)cc3)c(N)c2S(=O)(=O)c2ccc(C)cc2)cc1` the figure was -2.94%. As for `Cc1oc2ncn(CC(C)C)c(=O)c2c1C(=O)NCc1cccc(Cl)c1`, the inhibition is -6.59%.

For `COC(=O)CC(=O)CSc1nc2cc(C(=O)NC(C)C)ccc2c(=O)n1CCc1ccccc1`, the inhibition is -4.42%. Consider `Cc1ccc(C(=O)OC2=C(C(=O)c3ccccc3)N(C)S(=O)(=O)c3ccccc32)cc1`, for which the inhibition was 16.9%.

Turning to `CCOc1ccc(CN(C)CC(=O)Nc2ccc3c(c2)CCC3)cc1OC`, the inhibition is active: 30.1%.

As for `O=C(Cc1ccc(-c2ccccc2)cc1)NCCS(=O)(=O)N1CCN(c2cccc(Cl)c2)CC1`, the inhibition was -1.12%.

Take `Cc1cccc(-c2nc(SCCCOc3cc(C)c(Cl)c(C)c3)n3[nH]c(=O)cc3n2)c1`: the inhibition is 2.13%. Consider `COc1ccc(Nc2ncnc3c2cnn3-c2cc(Cl)ccc2C)cc1OC`, for which the inhibition was 1.35%.

The values are drawn from PubChem BioAssay AID485344 (National Center for Advancing Translational Sciences (NCATS), 2010).
